Reference: US20250340652A1 (CHENGDU DI AO PHARMACEUTICAL GROUP, published 2025)

How the values were obtained:
[1] = molecular target: T1, CC1H, major antigenic region of PLA2R (human, UniProt Q13018 21-367); assay: indirect ELISA, CC1h coated at 2 ug/mL, anti-human IgG Fc HRP
T1 construct: Secreted from CHO-S cells, purified on Ni column; also called CCIh
Experimental: 30 μL of CC1h (2 μg/mL, diluted with 1*PBS) was added to the reaction wells of the ELISA plate, and the plate was sealed and incubated at 4° C. overnight. The plate was washed with PBST for 3 times, and the liquid in the wells was discarded. 5% PBSM was added to block the ELISA plate at room temperature for 2 hours. The plate was washed with PBST for 3 times by adding 30 μL of Abs (diluted with 1*PBS) to each well of the ELISA plate, and the plate was incubated at room temperature for 60 min. The plate was washed with PBST for 3 times, 30 μL of anti-human IgG Fc HRP (diluted with 1% PBSM at a ratio of 1:8000) was added to each well, and incubated at room temperature for 60 min. TMB was added and the reaction was stopped with 2M blocking solution and the OD value was detected at 450 nm. Recombinant Ipilimumab (Sanyou Biopharmaceuticals Co., Ltd.) was used as a negative control. The test results were illustrated in Table 2 as well as FIG. 4 and FIG. 5.

CC1H-Biotin = molecular target: T2, CC1H-Biotin (human, UniProt Q13018 21-367, biotin by EZ-Link Sulfo-NHS-LC-Biotin, 1.80 mol Biotin/mol protein; sites not given); assay: BLI (Octet N1), CC1H-Biotin on SA sensor, antibody 76.6-8.5 nM
T2 construct: also called biotin-labeled CC1H
Experimental: Sartorius Octet® N1 molecular interaction instrument was used, the SA sensor (Sartorius, Octet® Streptavidin (SA) Biosensor, 18-5019) was selected.
The sensor was immersed in a PBSTB buffer (0.02% Tween-20 and 0.1% BSA were added in the PBS buffer) to be pre-wetted for 10 min or longer, and loaded onto the molecular interaction instrument.
The association constant (Ka), dissociation constant (Kd), and affinity constant (KD) were calculated and illustrated in Table 5 for details.

B1: A2 (antibody, human IgG4, kappa)
heavy: QVQLQQSGPGLVKPSQTLSLTCTVSGGSISSGGYYWSWIRQHPGKGLEWIGYIYYSGSTYYNPSLKSRVTISVDTSKNQFSLKLSSVTAADTAVYYCARQRRANGYSSSWEFDYWGQGTLVTVSSASTKGPSVFPLAPCSRSTSESTAALGCLVKDYFPEPVTVSWNSGALTSGVHTFPAVLQSSGLYSLSSVVTVPSSSLGTKTYTCNVDHKPSNTKVDKRV[human IgG4 Fc not shown]
light: DIVMTQSPSSLSASVGDRVTITCRASQGISSALAWYQQKPGKAPKLLIYDASSLESGVPSRFSGSGSGTDFTLTISSLQPEDFATYYCQQFNSYPLTFGGGTKVEIKRTVAAPSVFIFPPSDEQLKSGTASVVCLLNNFYPREAKVQWKVDNALQSGNSQESVTEQDSKDSTYSLSSTLTLSKADYEKHKVYACEVTHQGLSSPVTKSFNRGEC
notes: also called P59365
EC50 [1]: 3.94 ng/mL
Kd (CC1H-Biotin): 0.104 nM
koff (CC1H-Biotin): 7.86e-05 s⁻¹
kon (CC1H-Biotin): 755000 M⁻¹ s⁻¹

B2: A2 (IgG4SP) (antibody)
heavy: QVQLQQSGPGLVKPSQTLSLTCTVSGGSISSGGYYWSWIRQHPGKGLEWIGYIYYSGSTYYNPSLKSRVTISVDTSKNQFSLKLSSVTAADTAVYYCARQRRANGYSSSWEFDYWGQGTLVTVSSASTKGPSVFPLAPCSRSTSESTAALGCLVKDYFPEPVTVSWNSGALTSGVHTFPAVLQSSGLYSLSSVVTVPSSSLGTKTYTCNVDHKPSNTKVDKRV[human IgG4 Fc with S228P (EU numbers) not shown]
light: DIVMTQSPSSLSASVGDRVTITCRASQGISSALAWYQQKPGKAPKLLIYDASSLESGVPSRFSGSGSGTDFTLTISSLQPEDFATYYCQQFNSYPLTFGGGTKVEIKRTVAAPSVFIFPPSDEQLKSGTASVVCLLNNFYPREAKVQWKVDNALQSGNSQESVTEQDSKDSTYSLSSTLTLSKADYEKHKVYACEVTHQGLSSPVTKSFNRGEC
notes: IgG4SP (S228P in the hinge, already in the heavy chain entry); also called A2SP; P62295
EC50 [1]: 5.66 ng/mL
Kd (CC1H-Biotin): < 0.001 nM
koff (CC1H-Biotin): < 1e-07 s⁻¹
kon (CC1H-Biotin): 872000 M⁻¹ s⁻¹

B3: A5 (antibody, human IgG4, kappa)
heavy: QVQLVQSGGGVVQPGNSLRLSCVASGFTFSRYTIHWVRQAPGKGLEWVAVISYDGSNKYYADSVKGRFTISRDNSKNTLYLQMNSLRAEDTAVYYCARGGPTPDWGQGTLVTVSSASTKGPSVFPLAPCSRSTSESTAALGCLVKDYFPEPVTVSWNSGALTSGVHTFPAVLQSSGLYSLSSVVTVPSSSLGTKTYTCNVDHKPSNTKVDKRV[human IgG4 Fc not shown]
light: DIQMTQSPSSLSASVGDRVTITCRASQGIRNYLAWYQQKPGKVPRLLIFAASTLQSGVPSRFSGSGSGTDFTLTISSLQPEDVATYYCQKYYSAPFTFGPGTKVDIKRTVAAPSVFIFPPSDEQLKSGTASVVCLLNNFYPREAKVQWKVDNALQSGNSQESVTEQDSKDSTYSLSSTLTLSKADYEKHKVYACEVTHQGLSSPVTKSFNRGEC
notes: also called P59366
EC50 [1]: 8.81 ng/mL
Kd (CC1H-Biotin): 0.455 nM
koff (CC1H-Biotin): 0.000263 s⁻¹
kon (CC1H-Biotin): 577000 M⁻¹ s⁻¹

B4: A5 (IgG4SP) (antibody)
heavy: QVQLVQSGGGVVQPGNSLRLSCVASGFTFSRYTIHWVRQAPGKGLEWVAVISYDGSNKYYADSVKGRFTISRDNSKNTLYLQMNSLRAEDTAVYYCARGGPTPDWGQGTLVTVSSASTKGPSVFPLAPCSRSTSESTAALGCLVKDYFPEPVTVSWNSGALTSGVHTFPAVLQSSGLYSLSSVVTVPSSSLGTKTYTCNVDHKPSNTKVDKRV[human IgG4 Fc with S228P (EU numbers) not shown]
light: DIQMTQSPSSLSASVGDRVTITCRASQGIRNYLAWYQQKPGKVPRLLIFAASTLQSGVPSRFSGSGSGTDFTLTISSLQPEDVATYYCQKYYSAPFTFGPGTKVDIKRTVAAPSVFIFPPSDEQLKSGTASVVCLLNNFYPREAKVQWKVDNALQSGNSQESVTEQDSKDSTYSLSSTLTLSKADYEKHKVYACEVTHQGLSSPVTKSFNRGEC
notes: IgG4SP (S228P in the hinge, already in the heavy chain entry); also called A5SP; P62296
EC50 [1]: 11.2 ng/mL
Kd (CC1H-Biotin): 1.56 nM
koff (CC1H-Biotin): 0.000475 s⁻¹
kon (CC1H-Biotin): 304000 M⁻¹ s⁻¹

B5: A187 (antibody, human IgG4, kappa)
heavy: QVQLLDSGGGLVKPGGSLRLSCAASGFTFSSYGMHWVRQAPGKGLEWVAFISNDGSNKYYADSVKGRFTISRDNSKNTLYLQMNSLRAEDTAVYYCARLLRGPWNFDLWGRGTLVTVSSASTKGPSVFPLAPCSRSTSESTAALGCLVKDYFPEPVTVSWNSGALTSGVHTFPAVLQSSGLYSLSSVVTVPSSSLGTKTYTCNVDHKPSNTKVDKRV[human IgG4 Fc not shown]
light: [about 100 residues not shown][about 120 residues not shown]
notes: also called […]
EC50 [1]: 6.4 ng/mL
Kd (CC1H-Biotin): 2.04 nM
koff (CC1H-Biotin): 0.000395 s⁻¹
kon (CC1H-Biotin): 194000 M⁻¹ s⁻¹

B6: A187 (IgG4SP) (antibody)
heavy: QVQLLDSGGGLVKPGGSLRLSCAASGFTFSSYGMHWVRQAPGKGLEWVAFISNDGSNKYYADSVKGRFTISRDNSKNTLYLQMNSLRAEDTAVYYCARLLRGPWNFDLWGRGTLVTVSSASTKGPSVFPLAPCSRSTSESTAALGCLVKDYFPEPVTVSWNSGALTSGVHTFPAVLQSSGLYSLSSVVTVPSSSLGTKTYTCNVDHKPSNTKVDKRV[human IgG4 Fc with S228P (EU numbers) not shown]
light: [about 100 residues not shown][about 120 residues not shown]
notes: IgG4SP (S228P in the hinge, already in the heavy chain entry); also called A187SP; […]
EC50 [1]: 11.5 ng/mL
Kd (CC1H-Biotin): 1.36 nM
koff (CC1H-Biotin): 0.000227 s⁻¹
kon (CC1H-Biotin): 167000 M⁻¹ s⁻¹
